Laboratory results reported in the supplement of paper PMC12217912.
The list shows a part of the results. The full chains were built here from the parent and the listed change. Inactive controls read about 0.05.

B1: TEV protease; numbered along this chain (parent)
chain: MGESLFKGPRDYNPISSSICHLTNESDGHTTSLYGIGFGPFIITNKHLFRRNNGTLVVQSLHGVFKVKDTTTLQQHLVDGRDMIIIRMPKDFPPFPQKLKFREPQREERICLVTTNFQTKSMSSMVSDTSCTFPSGDGIFWKHWIQTKDGQCGSPLVSTRDGFIVGIHSASNFTNTNNYFTSVPKNFMELLTNQEAQQWVSGWRLNADSVLWGGHKVFMVKPEEPFQPVKEATQL

Variants of: B1
Test: raw area under fraction-flipped curve 0-4 h after induction (AUC4h, not background-subtracted), DNA-recorder readout of cleavage of the substrate (dimensionless); higher = more cleavage of the substrate by the protease variant
Details: temperature: 34 °C; time window: 0-4 h after rhamnose induction
Description: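 In vivo DNA recorder in E. coli TOP10(DE3) ΔrhaA at 34 °C. Each TEVp single-site mutant (parent TEVp 0) is paired with a single-site variant of the 7-mer TEVs (canonical ENLYFQ|S). The substrate sits between flexible linkers in a Bxb1-sfGFP-TEVs-SsrA fusion, so cleavage stabilises Bxb1 and speeds flipping of a recombination array, read by NGS. The value is the raw area under the fraction-flipped curve over 0-4 h after rhamnose induction (AUC4h), with ≥20 reads per time point. It is not background-subtracted; inactive controls average about 0.047.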
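Note: Bxb1 expression induced with 0.2% (w/v) L-rhamnose at OD600 near 0.5, cultures sampled hourly, flipped fraction per protease–substrate barcode pair counted by paired-end Illumina sequencing.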

Row | Variant | area with substrate ENLYAQS | area with substrate ENLYDQS | area with substrate ENLYHQS | area with substrate ENLYIQS | area with substrate ENLYKQS | area with substrate ENLYLQS | area with substrate ENLYNQS | area with substrate ENLYQQS | area with substrate ENLYRQS | area with substrate ENLYSQS | area with substrate ENLYTQS | area with substrate ENLYVQS | area with substrate ENLYYQS | area with substrate ENLYEQS | area with substrate ENLYMQS | area with substrate ENLYPQS | area with substrate ENLYCQS | area with substrate ENLYGQS | area with substrate ENLYWQS
1 | D69M | 0.075 | 0.0553 | 0.0614 | 0.104 | 0.0683 | 0.0723 | 0.0548 | 0.0901 | 0.0568 | 0.0612 | 0.0802 | 0.0714 | 0.0525 |  |  |  |  |  | 
2 | E108H | 0.0733 | 0.053 | 0.0572 | 0.0688 | 0.0509 | 0.0583 | 0.0582 | 0.0522 | 0.0321 | 0.0532 | 0.0555 | 0.084 |  | 0.0728 | 0.0633 | 0.0528 |  |  | 
3 | I145P | 0.0517 | 0.0541 |  |  | 0.0628 |  |  | 0.0449 |  |  |  |  |  |  | 0.0579 |  |  |  | 
4 | G80Y | 0.0774 | 0.0672 | 0.0642 | 0.107 | 0.0682 | 0.0832 | 0.0679 | 0.062 | 0.0616 | 0.0459 |  | 0.095 |  |  |  |  | 0.076 |  | 
5 | N175V | 0.064 | 0.0689 |  | 0.042 | 0.0616 |  | 0.062 | 0.0611 | 0.0536 |  | 0.0651 | 0.0594 | 0.072 | 0.0723 | 0.0479 | 0.0568 |  | 0.0631 | 0.0547
6 | T132W | 0.0648 | 0.0651 | 0.0469 | 0.0898 | 0.069 | 0.0703 | 0.0589 |  | 0.0604 |  |  | 0.0718 |  | 0.0532 | 0.0687 | 0.0569 | 0.0755 |  | 0.0568
7 | W199I | 0.0692 | 0.0702 |  |  |  |  |  |  |  |  |  |  | 0.069 |  | 0.0635 |  | 0.068 | 0.0562 | 0.0641
8 | S26M | 0.0687 | 0.0656 | 0.0585 |  | 0.0263 | 0.06 | 0.0563 | 0.0702 | 0.0545 | 0.0455 |  | 0.0545 | 0.0502 | 0.0601 | 0.0861 | 0.0676 | 0.073 | 0.058 | 0.0604
9 | P228E | 0.076 | 0.0613 | 0.0786 | 0.127 |  |  | 0.074 |  |  |  |  |  |  |  | 0.0917 | 0.0438 |  |  | 0.0975
10 | D27Y | 0.0617 | 0.0588 | 0.0609 | 0.097 | 0.0622 | 0.0562 | 0.0689 | 0.0625 | 0.0658 | 0.0742 | 0.0675 | 0.0973 |  | 0.0578 | 0.0744 | 0.0556 | 0.0826 | 0.0555 | 0.0778
11 | I42M | 0.0643 | 0.0535 | 0.0649 | 0.118 | 0.0575 |  |  | 0.0833 |  |  | 0.0749 | 0.138 |  | 0.0635 | 0.0818 | 0.0733 | 0.0923 | 0.0657 | 
12 | E189P | 0.0484 | 0.0789 | 0.0699 |  | 0.0545 |  |  | 0.0694 |  |  |  | 0.0975 |  | 0.0443 | 0.0796 | 0.0828 |  | 0.0628 | 
13 | I85G | 0.054 | 0.0531 | 0.0486 | 0.0553 | 0.0436 |  |  | 0.0451 | 0.0538 | 0.0509 | 0.0438 |  |  | 0.0453 | 0.055 | 0.0414 |  |  | 0.0513
14 | T159R | 0.0689 | 0.0613 | 0.0838 | 0.139 |  |  |  | 0.0923 | 0.0619 | 0.0333 |  | 0.163 |  |  | 0.0844 |  |  |  | 0.0952
15 | S123F | 0.0854 | 0.036 | 0.074 | 0.123 | 0.0487 |  | 0.0651 |  | 0.0593 | 0.0741 | 0.0799 | 0.0755 | 0.0618 | 0.0665 | 0.101 | 0.0708 |  | 0.0599 | 0.0793
16 | F65Y | 0.0757 | 0.0646 |  | 0.111 | 0.0555 | 0.0819 | 0.0895 | 0.0712 | 0.0594 | 0.0295 |  |  | 0.0673 | 0.054 | 0.0418 | 0.0605 | 0.101 | 0.0657 | 0.0787
17 | P134S | 0.0794 |  | 0.0663 | 0.1 |  | 0.0764 | 0.0527 |  |  |  |  |  |  | 0.0616 | 0.0698 | 0.0769 | 0.0661 | 0.0582 | 
18 | Q105H | 0.0836 |  | 0.0807 | 0.179 |  |  | 0.0551 |  |  | 0.0687 | 0.0916 |  | 0.0972 | 0.0662 |  | 0.0706 |  |  | 0.0614
19 | N186Q | 0.0804 | 0.0639 | 0.0063 | 0.119 |  |  |  |  |  |  |  |  | 0.0618 |  |  |  | 0.0842 |  | 0.0543
20 | L211K | 0.0734 |  | 0.0922 | 0.124 | 0.0662 |  |  |  |  |  | 0.0672 |  | 0.0439 | 0.0759 |  |  |  | 0.081 | 
21 | L77M | 0.0543 | 0.054 | 0.0591 | 0.0239 | 0.0324 |  | 0.0577 | 0.0581 | 0.0708 | 0.0856 |  |  |  | 0.0787 | 0.0671 | 0.0656 |  | 0.0707 | 0.0494
22 | P104E | 0.0254 | 0.0645 | 0.0469 | 0.0539 | 0.0513 |  | 0.0436 | 0.0494 |  |  | 0.0485 |  | 0.0832 | 0.0623 | 0.0623 | 0.0555 | 0.0517 |  | 0.0452
23 | T70V | 0.072 | 0.0644 |  |  | 0.0689 | 0.0749 |  |  |  | 0.0606 | 0.0727 | 0.069 |  | 0.0618 | 0.057 | 0.0639 |  | 0.0708 | 0.0565
24 | K221M | 0.0441 | 0.0382 | 0.0648 | 0.0901 | 0.0403 | 0.0615 | 0.0677 | 0.0675 | 0.0696 | 0.0706 |  | 0.101 | 0.0596 | 0.058 |  | 0.0675 |  | 0.0696 | 
25 | L205A | 0.0697 | 0.0533 | 0.0684 |  | 0.106 | 0.0809 | 0.0654 | 0.0568 | 0.0622 | 0.0798 |  |  |  | 0.0602 | 0.0606 | 0.0405 |  | 0.0603 | 0.0624
26 | T129E | 0.073 | 0.0639 |  | 0.101 | 0.066 |  |  |  |  |  | 0.0088 |  |  |  | 0.0713 |  |  |  | 
27 | F117D | 0.0839 |  | 0.0712 | 0.0942 | 0.0674 |  | 0.0762 |  |  |  | 0.0753 | 0.106 |  |  | 0.106 | 0.0657 |  |  | 0.0785
28 | P14Q | 0.0952 | 0.0288 | 0.0682 | 0.114 | 0.0674 |  | 0.0693 |  |  | 0.0798 | 0.0757 | 0.115 | 0.0688 | 0.121 | 0.0854 | 0.0649 | 0.106 |  | 0.0993
